Test results taken from publication PMC8428793.
No constants are given. Whether binding was seen depends on the method and setting. For some of these results: In cells and extracts the contact can be indirect. Some binding calls cover weakened binding; strength is not graded here. Where a sequence is shown, tags or fusion partners need not be part of it.

The chains behind the UniProt entries cited, without tags or fusion partners. Where a name states a change or a piece, a line headed by the entry shows the natural chain unless it says otherwise. Residues count along the entry.
UniProt Q9UK41: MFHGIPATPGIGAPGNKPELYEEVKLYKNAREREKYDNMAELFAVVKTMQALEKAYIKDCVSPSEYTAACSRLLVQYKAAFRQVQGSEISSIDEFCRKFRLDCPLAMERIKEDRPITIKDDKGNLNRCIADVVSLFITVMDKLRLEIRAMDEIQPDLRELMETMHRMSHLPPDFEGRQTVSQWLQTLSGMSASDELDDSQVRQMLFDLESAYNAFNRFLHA
GST-VPS28 NT (1-120 aa): residues 1-120 of Q9UK41
UniProt Q8NEZ2: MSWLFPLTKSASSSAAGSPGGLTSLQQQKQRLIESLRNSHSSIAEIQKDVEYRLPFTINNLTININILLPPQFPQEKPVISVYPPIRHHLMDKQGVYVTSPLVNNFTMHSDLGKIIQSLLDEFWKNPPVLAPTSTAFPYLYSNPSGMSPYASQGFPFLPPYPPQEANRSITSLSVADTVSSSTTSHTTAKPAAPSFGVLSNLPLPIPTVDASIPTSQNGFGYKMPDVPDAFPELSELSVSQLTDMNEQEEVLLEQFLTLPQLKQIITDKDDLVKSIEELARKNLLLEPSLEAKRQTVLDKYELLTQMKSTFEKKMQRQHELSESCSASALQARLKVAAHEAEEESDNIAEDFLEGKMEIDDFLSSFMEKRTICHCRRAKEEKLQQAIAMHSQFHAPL
UniProt A5D8V6: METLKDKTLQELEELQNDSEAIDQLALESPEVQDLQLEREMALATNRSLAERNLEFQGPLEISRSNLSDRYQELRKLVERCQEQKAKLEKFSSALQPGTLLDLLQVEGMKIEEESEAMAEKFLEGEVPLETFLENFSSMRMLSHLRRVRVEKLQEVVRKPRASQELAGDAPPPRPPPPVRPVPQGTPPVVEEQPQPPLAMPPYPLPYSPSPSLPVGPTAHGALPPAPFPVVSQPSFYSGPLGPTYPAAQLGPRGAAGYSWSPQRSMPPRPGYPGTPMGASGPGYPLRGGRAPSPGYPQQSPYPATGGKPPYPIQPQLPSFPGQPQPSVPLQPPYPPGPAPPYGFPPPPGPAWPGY

Assays:
GFP-VPS28 (human) = GFP-VPS28 (human) (UniProt Q9UK41); assay: pull-down; GFP-TRAP: 293T transfected with GFP-tagged ESCRT subunits or SEPT9 isoforms and AKTIP-Myc-Flag; lysis buffer 150mM NaCl, 50 mM Tris pH7.5, 1 mM EDTA, 1% glycerol, 1% NP40; magnetic agarose GFP-trap beads 10 minutes; Western blot with MYC antisera
VPS36-GFP (human) = molecular target: T1, VPS36-GFP (human) (UniProt Q86VN1); assay: as above
T1 sequence: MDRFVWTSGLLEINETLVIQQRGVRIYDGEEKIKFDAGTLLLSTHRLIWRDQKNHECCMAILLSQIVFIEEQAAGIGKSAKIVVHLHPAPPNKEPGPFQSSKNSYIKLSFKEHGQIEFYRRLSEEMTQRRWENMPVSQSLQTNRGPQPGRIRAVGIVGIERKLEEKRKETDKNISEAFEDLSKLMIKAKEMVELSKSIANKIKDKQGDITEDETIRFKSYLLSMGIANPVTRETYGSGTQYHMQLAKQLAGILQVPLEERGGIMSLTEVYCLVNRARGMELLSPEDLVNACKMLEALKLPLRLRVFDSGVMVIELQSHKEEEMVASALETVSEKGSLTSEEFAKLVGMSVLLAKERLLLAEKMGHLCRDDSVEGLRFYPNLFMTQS

VPS25-GFP (human) = molecular target: T2, VPS25-GFP (human) (UniProt Q9BRG1); assay: as above
T2 sequence: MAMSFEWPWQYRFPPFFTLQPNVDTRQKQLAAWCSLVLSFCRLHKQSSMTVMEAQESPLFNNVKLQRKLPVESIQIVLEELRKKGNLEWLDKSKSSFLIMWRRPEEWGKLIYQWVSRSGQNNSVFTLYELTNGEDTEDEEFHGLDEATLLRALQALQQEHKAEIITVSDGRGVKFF

[1] = molecular target: T3, GFP-tagged SEPT9 isoform A (human) (UniProt Q9UHD8); assay: as above
T3 sequence: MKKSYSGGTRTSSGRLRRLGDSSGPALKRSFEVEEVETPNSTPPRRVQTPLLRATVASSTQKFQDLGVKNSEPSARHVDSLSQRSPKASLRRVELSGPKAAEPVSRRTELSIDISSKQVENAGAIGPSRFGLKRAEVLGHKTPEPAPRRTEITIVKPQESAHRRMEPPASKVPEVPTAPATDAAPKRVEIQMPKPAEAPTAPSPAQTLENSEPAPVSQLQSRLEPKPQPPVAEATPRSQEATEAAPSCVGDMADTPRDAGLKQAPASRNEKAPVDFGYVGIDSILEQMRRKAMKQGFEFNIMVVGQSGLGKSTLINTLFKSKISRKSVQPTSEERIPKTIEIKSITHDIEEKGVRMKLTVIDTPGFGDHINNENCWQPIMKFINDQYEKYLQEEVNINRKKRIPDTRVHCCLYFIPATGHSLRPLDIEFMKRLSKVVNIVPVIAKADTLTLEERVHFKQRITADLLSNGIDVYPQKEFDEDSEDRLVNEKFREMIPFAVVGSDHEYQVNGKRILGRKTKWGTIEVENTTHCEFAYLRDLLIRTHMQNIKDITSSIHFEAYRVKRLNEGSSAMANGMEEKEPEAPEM

VPS22-GFP (human) = molecular target: T4, VPS22-GFP (human) (UniProt Q96H20); assay: as above
T4 sequence: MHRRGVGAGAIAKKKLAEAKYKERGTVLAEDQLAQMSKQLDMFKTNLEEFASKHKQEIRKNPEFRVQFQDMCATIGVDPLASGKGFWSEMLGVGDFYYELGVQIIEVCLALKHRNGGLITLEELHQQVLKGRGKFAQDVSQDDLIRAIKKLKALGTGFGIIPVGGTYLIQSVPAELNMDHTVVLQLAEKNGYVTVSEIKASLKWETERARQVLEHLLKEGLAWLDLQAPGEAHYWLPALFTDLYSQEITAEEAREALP

VPS37A-GST (human) = VPS37A-GST (human) (UniProt Q8NEZ2); assay: pull-down; GST pull-down: 293T co-transfected with GST or GST fusion and tagged AKTIP, 48 hrs; NP40 lysis buffer (150mM NaCl, 50mM Tris pH7.5, 1mM EDTA); glutathione-Sepharose beads 3hrs at 4°C; Western blot
[2] = molecular target: GST-VPS28 (full length) (human) (UniProt Q9UK41); assay: as above
VPS37C-GST (human) = VPS37C-GST (human) (UniProt A5D8V6); assay: as above
VPS37D-GST (human) = molecular target: T5, VPS37D-GST (human) (UniProt Q86XT2); assay: as above
T5 sequence: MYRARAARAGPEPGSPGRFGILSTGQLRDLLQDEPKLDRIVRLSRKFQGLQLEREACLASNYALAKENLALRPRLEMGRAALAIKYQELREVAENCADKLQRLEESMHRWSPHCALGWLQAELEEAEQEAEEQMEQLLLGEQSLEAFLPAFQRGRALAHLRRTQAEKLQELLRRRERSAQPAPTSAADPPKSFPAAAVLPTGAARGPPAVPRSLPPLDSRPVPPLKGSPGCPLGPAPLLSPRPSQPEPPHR

GST-IST1 (human) = GST-IST1 (human) (UniProt P53990); assay: as above
[3] = molecular target: GST-VPS28 NT (1-120 aa) (human) (UniProt Q9UK41); assay: as above
VPS37B-GST (human) = molecular target: T6, VPS37B-GST (human) (UniProt Q9H9H4); assay: as above
T6 sequence: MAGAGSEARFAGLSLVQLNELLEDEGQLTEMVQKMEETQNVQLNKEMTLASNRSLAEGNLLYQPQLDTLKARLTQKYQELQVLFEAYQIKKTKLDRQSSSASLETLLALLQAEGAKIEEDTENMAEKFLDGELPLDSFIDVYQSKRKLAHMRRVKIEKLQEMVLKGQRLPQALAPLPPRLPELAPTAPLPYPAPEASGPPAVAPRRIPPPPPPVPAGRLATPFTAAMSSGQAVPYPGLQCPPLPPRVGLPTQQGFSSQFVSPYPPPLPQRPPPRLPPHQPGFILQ

[4] = molecular target: GST-VPS28 (full length) (human) (UniProt Q9UK41); assay: pull-down; GST pull-down: 293T co-transfected with GST-VPS28 (1000 ng), GFP-TSG101 (500 ng) and increasing amounts of HA-AKTIP plasmid (0, 50, 100, 500 or 1000 ng); glutathione-Sepharose beads; Western blot with GST, GFP, HA antisera
[5] = molecular target: T7, AKTIP fused to the Gal4 DNA-binding domain (human) (UniProt Q9H8T0); assay: two-hybrid; yeast Y190 co-transformed with AKTIP-Gal4 DNA-binding domain (pGBKT7) and VP16 activation domain fusions (pHB18); liquid beta-galactosidase (LacZ) assay
T7 sequence: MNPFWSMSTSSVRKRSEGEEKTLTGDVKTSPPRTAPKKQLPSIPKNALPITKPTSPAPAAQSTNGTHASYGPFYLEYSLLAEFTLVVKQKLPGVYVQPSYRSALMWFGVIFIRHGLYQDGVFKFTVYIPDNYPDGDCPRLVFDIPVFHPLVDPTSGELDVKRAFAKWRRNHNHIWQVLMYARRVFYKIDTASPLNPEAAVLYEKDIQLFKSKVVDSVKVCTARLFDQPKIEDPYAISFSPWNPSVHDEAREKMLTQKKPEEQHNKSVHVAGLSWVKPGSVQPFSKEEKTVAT

B1: MYC-AKTIP (pCMV6-Entry-AKTIP-Myc-Flag) (protein, UniProt Q9H8T0 1-292)
chain: MNPFWSMSTSSVRKRSEGEEKTLTGDVKTSPPRTAPKKQLPSIPKNALPITKPTSPAPAAQSTNGTHASYGPFYLEYSLLAEFTLVVKQKLPGVYVQPSYRSALMWFGVIFIRHGLYQDGVFKFTVYIPDNYPDGDCPRLVFDIPVFHPLVDPTSGELDVKRAFAKWRRNHNHIWQVLMYARRVFYKIDTASPLNPEAAVLYEKDIQLFKSKVVDSVKVCTARLFDQPKIEDPYAISFSPWNPSVHDEAREKMLTQKKPEEQHNKSVHVAGLSWVKPGSVQPFSKEEKTVAT
GFP-VPS28 (human)
  binding: binds
VPS36-GFP (human)
  binding: no binding
VPS25-GFP (human)
  binding: no binding
[1]
  binding: no binding
VPS22-GFP (human)
  binding: no binding
VPS37A-GST (human)
  binding: no binding
[2]
  binding: binds
VPS37C-GST (human)
  binding: no binding
VPS37D-GST (human)
  binding: no binding
GST-IST1 (human)
  binding: no binding
[3]
  binding: binds
VPS37B-GST (human)
  binding: no binding

B2: HA-AKTIP (full length, pCR3.1) (protein, UniProt Q9H8T0 1-292)
chain: MNPFWSMSTSSVRKRSEGEEKTLTGDVKTSPPRTAPKKQLPSIPKNALPITKPTSPAPAAQSTNGTHASYGPFYLEYSLLAEFTLVVKQKLPGVYVQPSYRSALMWFGVIFIRHGLYQDGVFKFTVYIPDNYPDGDCPRLVFDIPVFHPLVDPTSGELDVKRAFAKWRRNHNHIWQVLMYARRVFYKIDTASPLNPEAAVLYEKDIQLFKSKVVDSVKVCTARLFDQPKIEDPYAISFSPWNPSVHDEAREKMLTQKKPEEQHNKSVHVAGLSWVKPGSVQPFSKEEKTVAT
[4]
  binding: binds
[2]
  binding: binds

B3: GFP-AKTIP UEV (78-220 aa) (domain or fragment, UniProt Q9H8T0 78-220)
chain: SLLAEFTLVVKQKLPGVYVQPSYRSALMWFGVIFIRHGLYQDGVFKFTVYIPDNYPDGDCPRLVFDIPVFHPLVDPTSGELDVKRAFAKWRRNHNHIWQVLMYARRVFYKIDTASPLNPEAAVLYEKDIQLFKSKVVDSVKVC
[2]
  binding: binds

B4: CEP55 fused to the VP16 activation domain (protein, UniProt Q53EZ4 1-464)
chain: MSSRSTKDLIKSKWGSKPSNSKSETTLEKLKGEIAHLKTSVDEITSGKGKLTDKERHRLLEKIRVLEAEKEKNAYQLTEKDKEIQRLRDQLKARYSTTTLLEQLEETTREGERREQVLKALSEEKDVLKQQLSAATSRIAELESKTNTLRLSQTVAPNCFNSSINNIHEMEIQLKDALEKNQQWLVYDQQREVYVKGLLAKIFELEKKTETAAHSLPQQTKKPESEGYLQEEKQKCYNDLLASAKKDLEVERQTITQLSFELSEFRRKYEETQKEVHNLNQLLYSQRRADVQHLEDDRHKTEKIQKLREENDIARGKLEEEKKRSEELLSQVQFLYTSLLKQQEEQTRVALLEQQMQACTLDFENEKLDRQHVQHQLHVILKELRKARNQITQLESLKQLHEFAITEPLVTFQGETENREKVAASPKSPTAALNESLVECPKCNIQYPATEHRDLLVHVEYCSK
[5]
  binding: no binding
